Test results published in PubChem BioAssay AID624170 (National Center for Advancing Translational Sciences (NCATS), 2012).
Screen size: about 410,000 compounds; about 850 (0.21%) were called active. The inconclusive results got no clear call from the source; some entries with a clear call stand among them for comparison. The call rests on the fitted dose curve; in most records, active means well fitted inhibition curve with a large enough effect; inconclusive means small, poorly fitted or top-dose-only effect, or another doubt; inactive means no such curve, though single readings can be large or run the other way. Potencies of inconclusive entries are left out as doubtful fits.

The molecules below were run against Glutaminase kidney isoform, mitochondrial (Homo sapiens) (UniProt O94925) (assay: qHTS for Inhibitors of Glutaminase (GLS)). Conditions: GLS enzymatic activity, qHTS titration; series mostly up to 45.5 µM.
Outline: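 hKGA in 45 mM KH2PO4 (pH 8.2), 0.02% Tween-20 with compound, then 1mM L-Glutamine (stock as added) plus glutamate oxidase/HRP/Amplex red coupling mix. Fluorescence read initially and after 30 min at RT; signal change reflects glutamate formation.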
Potency means the concentration at half of the fitted maximal effect; tags describe the fitted curve by direction and shape.

Chain of UniProt O94925 (O94925 whole entry, looked up, canonical isoform): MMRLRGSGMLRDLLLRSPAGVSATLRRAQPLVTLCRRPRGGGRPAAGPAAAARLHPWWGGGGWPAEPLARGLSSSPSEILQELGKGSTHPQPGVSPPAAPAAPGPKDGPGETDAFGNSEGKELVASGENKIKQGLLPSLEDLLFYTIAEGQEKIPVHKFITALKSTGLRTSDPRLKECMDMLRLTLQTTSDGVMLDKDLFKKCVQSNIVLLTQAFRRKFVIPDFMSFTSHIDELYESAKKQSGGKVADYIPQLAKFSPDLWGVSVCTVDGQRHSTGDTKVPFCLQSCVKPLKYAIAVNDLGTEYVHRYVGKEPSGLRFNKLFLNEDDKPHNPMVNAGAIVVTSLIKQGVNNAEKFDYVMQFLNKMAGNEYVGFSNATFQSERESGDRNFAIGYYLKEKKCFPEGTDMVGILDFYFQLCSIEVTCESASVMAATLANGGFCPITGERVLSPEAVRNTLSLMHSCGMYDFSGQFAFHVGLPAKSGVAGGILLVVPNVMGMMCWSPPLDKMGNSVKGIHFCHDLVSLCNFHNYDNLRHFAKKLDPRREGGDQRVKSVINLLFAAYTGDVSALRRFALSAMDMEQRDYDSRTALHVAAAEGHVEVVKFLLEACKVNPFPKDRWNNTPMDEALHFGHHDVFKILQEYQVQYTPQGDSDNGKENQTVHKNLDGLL

`O=S(=O)(NC1CCC(NS(=O)(=O)c2c(F)cccc2F)CC1)c1ccc2c(c1)OCCO2` (configuration not stated) was tested. Which Potency did it give?
The Potency was “inactive”.

With `COc1ccc(CC(=S)N2CCOCC2)cc1` as the molecule, how does the Potency read?
Its Potency is inconclusive [inhibitor, single point].

How did the Potency turn out when `O=C1Cc2cc([N+](=O)[O-])ccc2N1c1c(Cl)cccc1Cl` was run?
Its Potency is inconclusive [inhibitor, single point].

How did the Potency turn out when `CC(C)(C)c1ccc(-c2n[nH]c(=S)n2C2CCCC2)cc1` was run?
Its Potency is inconclusive [inhibitor, single point].

`CCOC(=O)c1c(-c2ccccc2)oc2ccc(O)c(CN3CCOCC3)c12` was tested. Which Potency did it give?
The Potency was inconclusive [inhibitor, single point].

Which Potency does the source give for `CCCC(=O)Nc1nnc(SCC)s1` here?
Its Potency is “inactive”.

For `COc1ccc(NC(=S)NNc2ccc([N+](=O)[O-])cc2S(=O)(=O)Nc2ccc(C)cc2C)cc1`, which Potency is on record?
Its Potency is inconclusive [inhibitor, partial curve, poor fit].

For `CC(C)C(=O)Nc1ccc(S(=O)(=O)Nc2ccccn2)cc1`, which Potency is on record?
The Potency was “inactive”.

Which Potency does the source give for `Cc1onc(-c2ccccc2Cl)c1C(=O)NCc1ccco1` here?
The Potency was active: 10 µM.

`C/C(=N\NC(=O)c1c(Cl)cnn1C)c1cccc(NC(=O)COc2ccccc2)c1` was tested. Which Potency did it give?
The Potency was “inactive”.

How did the Potency turn out when `Cc1ccc(-c2cc(C(=O)O)c3ccccc3n2)s1` was run?
Its Potency is “inactive”.

How did the Potency turn out when `Cc1[nH]n(-c2cccc3ccccc23)c(=O)c1/C=N/NC(=O)c1cccc([N+](=O)[O-])c1` was run?
Its Potency is inconclusive [inhibitor, single point].

How did the Potency turn out when `COc1ccc2c(c1)c(=O)oc1c(C)c(OCc3cc(C(=O)O)oc3C)ccc12` was run?
The Potency was inconclusive [inhibitor, single point].

`COc1ccc(C(=O)N2CCC(C(=O)Nc3ccc(C)cc3)CC2)cc1` was tested. Which Potency did it give?
The Potency was inconclusive [inhibitor, single point].

`Cc1sc2ncnc(SCC(=O)N3c4ccccc4Sc4ccc(Cl)cc43)c2c1C` was tested. Which Potency did it give?
The Potency was “inactive”.

Which Potency does the source give for `Oc1ccc(/C=N/n2c(COc3ccccc3)n[nH]c2=S)cc1O` here?
Its Potency is inconclusive [inhibitor, partial curve, poor fit].

Which Potency does the source give for `Cc1ccc(-c2csc3ncn(CC(=O)O)c(=O)c23)cc1C` here?
Its Potency is inconclusive [inhibitor, single point].

With `CCNC(=S)Nc1cc(OC)c(NC(=O)c2ccco2)cc1OC` as the molecule, how does the Potency read?
Its Potency is inconclusive [inhibitor, single point].

How did the Potency turn out when `Oc1ccc(C(=S)N2CCCC2)cc1` was run?
Its Potency is “inactive”.

For `CSc1ccc(CCNC(=O)Cn2c(C)c3cnn(-c4ccccc4)c(=O)c3c2C)cc1`, which Potency is on record?
The Potency was “inactive”.

How did the Potency turn out when `O=C(CCCCCNC(=O)c1ccccc1)N/N=C/c1ccc(O)cc1O` was run?
The Potency was inconclusive [inhibitor, partial curve].

For `Cc1ccc(CN2CCSc3ccc(C(=O)NCc4ccccn4)cc32)cc1`, which Potency is on record?
The Potency was “inactive”.

For `CC1CCc2c(sc(NS(=O)(=O)c3ccccc3)c2C(=O)OC(C)C)C1` (configuration not stated), which Potency is on record?
The Potency was inconclusive [inhibitor, single point].

How did the Potency turn out when `Cc1cc(-c2nn(C)c(=O)c3ccccc23)ccc1CNC(=O)NC1CCCCC1` was run?
The Potency was inconclusive [inhibitor, single point].

For `Cc1c(OCC(=O)N[C@@H](Cc2ccccc2)C(=O)O)ccc2c1oc(=O)c1ccccc12`, which Potency is on record?
The Potency was inconclusive [inhibitor, single point].

How did the Potency turn out when `CCN(CC)S(=O)(=O)c1ccc(OCCNS(C)(=O)=O)cc1` was run?
Its Potency is inconclusive [inhibitor, single point].

How did the Potency turn out when `Cc1c2cc(O)c(=O)cc-2oc2cc(O)c(O)cc12` was run?
Its Potency is inconclusive [inhibitor, full curve].

`CCC(=O)Nc1nnc(Sc2ccc(N(C)C)cc2)s1` was tested. Which Potency did it give?
The Potency was “inactive”.

With `CNC1(c2nnnn2-c2ccccc2C)CCOC(C)(C)C1` (configuration not stated) as the molecule, how does the Potency read?
Its Potency is inconclusive [inhibitor, partial curve].

For `COc1cccc2cc(C(=O)Oc3ccccc3)c(=O)oc12`, which Potency is on record?
The Potency was “inactive”.

`CC(C)Sc1nc(N2CCOCC2)c2c(c1C#N)CC(C)(C)N(C)C2` was tested. Which Potency did it give?
The Potency was inconclusive [inhibitor, single point].

Which Potency does the source give for `CCn1c(CSc2nc3ccccc3s2)nc2ccccc21` here?
Its Potency is inconclusive [inhibitor, partial curve].

Which Potency does the source give for `Cc1ccc(NC(=O)CCC(=O)OCC(=O)c2ccc(Oc3ccc([N+](=O)[O-])cc3)cc2)cc1C` here?
The Potency was “inactive”.

`Cc1c(C)n(CCc2ccccc2)c2ncnc(NN)c12` was tested. Which Potency did it give?
The Potency was inconclusive [inhibitor, partial curve, poor fit].

With `CCN(CCO)c1ccc(NC(=S)Nc2cccc(S(=O)(=O)N(C)C)c2)cc1` as the molecule, how does the Potency read?
Its Potency is inconclusive [inhibitor, single point].

How did the Potency turn out when `C=C1CCC[C@]2(C)C[C@H]3OC(=O)C(CNCCN(CC)CC)[C@H]3CC12` (some centres not stated) was run?
Its Potency is “inactive”.

For `Cc1nnc(C)n1/N=C/c1cccn1C`, which Potency is on record?
The Potency was inconclusive [inhibitor, single point].

With `CCc1cc(=O)oc2c(C)c3c(cc12)CN(CCc1ccccc1OC)CO3` as the molecule, how does the Potency read?
Its Potency is “inactive”.

How did the Potency turn out when `CC1(c2ccccc2)NC(=O)N(CC(=O)Nc2ccc(S(=O)(=O)NC3=NCCCCC3)cc2)C1=O` (configuration not stated) was run?
Its Potency is “inactive”.

For `COc1ccc(C2c3ccc4ccccc4c3Oc3ncn(CCCO)c(=N)c32)cc1` (configuration not stated), which Potency is on record?
The Potency was inconclusive [inhibitor, partial curve].

`CCCCN(CC)CCCNC(=O)c1cc2c(=O)n(CC)c3ccccc3c2s1` was tested. Which Potency did it give?
Its Potency is inconclusive [inhibitor, single point].

With `CCCOc1cccc(C2c3c(-c4ccccc4O)n[nH]c3C(=O)N2Cc2ccco2)c1` (configuration not stated) as the molecule, how does the Potency read?
Its Potency is “inactive”.

With `COc1ccccc1OCCOc1ccc(/C=C2\C(=N)N3N=C(S(C)(=O)=O)SC3=NC2=O)cc1` as the molecule, how does the Potency read?
Its Potency is “inactive”.

Which Potency does the source give for `CCCCNc1nc2ccccc2nc1Cl` here?
The Potency was inconclusive [inhibitor, single point].

Which Potency does the source give for `CCCn1cnc2cc(NCc3ccccc3OCC)ccc21` here?
Its Potency is inconclusive [inhibitor, partial curve, poor fit].

How did the Potency turn out when `Cc1[nH]nc(-c2ccc(O)cc2O)c1-c1nc2ccccc2s1` was run?
The Potency was inconclusive [inhibitor, partial curve].

How did the Potency turn out when `CC1=C(C(=O)Nc2ccccc2C(F)(F)F)C(c2ccc(C)s2)NC(=S)N1` (configuration not stated) was run?
The Potency was “inactive”.

Which Potency does the source give for `O=C(CSc1nnc(-c2ccc(O)cc2)o1)Nc1cccc(O)c1` here?
The Potency was “inactive”.

For `O=[N+]([O-])c1cccc2ccc(/C=C/c3cccc(Br)c3)nc12`, which Potency is on record?
The Potency was “inactive”.

Which Potency does the source give for `CCC(=O)c1ccc(N2CCN(C(=O)COc3ccccc3F)CC2)c(F)c1` here?
Its Potency is inconclusive [inhibitor, full curve].

With `O=C(O)c1cccc(N/N=C/c2cn(-c3ccccc3)nc2-c2cccs2)c1` as the molecule, how does the Potency read?
The Potency was inconclusive [inhibitor, single point].

With `Cc1sc2nc(C3CC3)nc(SCC(=O)N3c4ccccc4CC3C)c2c1C` (configuration not stated) as the molecule, how does the Potency read?
Its Potency is “inactive”.

How did the Potency turn out when `COc1ccc(S(=O)(=O)Nc2ccc(O)c(Sc3ncn[nH]3)c2)cc1` was run?
The Potency was inconclusive [inhibitor, single point].

For `CCOC(=O)C(NC(=O)N(C)C)(Nc1sc(C)c(CC)c1C#N)C(F)(F)F` (configuration not stated), which Potency is on record?
Its Potency is inconclusive [inhibitor, partial curve].

With `Cc1ccccc1-n1c(-c2ccc3ccccc3n2)n[nH]c1=S` as the molecule, how does the Potency read?
Its Potency is inconclusive [inhibitor, partial curve].

Which Potency does the source give for `Cc1nc(C)c(C(=O)NNS(=O)(=O)c2ccccc2)s1` here?
The Potency was inconclusive [inhibitor, single point].

`COc1ccc(S(=O)(=O)N2CCC[C@H]2C(=O)N2CCC[C@H]2C(=O)N(C)Cc2ccccc2)cc1C` was tested. Which Potency did it give?
The Potency was “inactive”.

Which Potency does the source give for `COc1cc2ccc(=O)oc2cc1O` here?
Its Potency is “inactive”.

For `O=c1c2c3c(sc2ncn1/N=C/c1ccc([N+](=O)[O-])o1)CCCC3`, which Potency is on record?
The Potency was “inactive”.

`C=CCSc1nc2ccccc2c(=O)n1Cc1ccccc1` was tested. Which Potency did it give?
The Potency was inconclusive [inhibitor, single point].

With `CC(=O)c1cc(NC(=O)c2cccc(C(F)(F)F)c2)c(=O)oc1C` as the molecule, how does the Potency read?
The Potency was inconclusive [inhibitor, single point].

Which Potency does the source give for `CCOC1=C2[C@H](c3ccccc3Cl)N(S(=O)(=O)c3ccc(C)cc3)C[C@H]2C(C#N)(C#N)C(C#N)(C#N)C1` here?
Its Potency is inconclusive [inhibitor, partial curve].

How did the Potency turn out when `O=C(NCc1ccc2c(c1)OCO2)c1ccc2snnc2c1` was run?
The Potency was inconclusive [inhibitor, single point].

With `CCOC(=O)c1oc2ccc(Br)cc2c1NC(=O)CN1CCN(C)CC1` as the molecule, how does the Potency read?
Its Potency is inconclusive [inhibitor, single point].

With `O=S(=O)(c1ccc2nc(N3CCN(c4ccc(F)cc4)CC3)ccc2c1)N1CCCCC1` as the molecule, how does the Potency read?
Its Potency is “inactive”.

How did the Potency turn out when `O=C(NNc1ccccc1[N+](=O)[O-])Nc1ccc(F)cc1` was run?
The Potency was inconclusive [inhibitor, partial curve].

For `COc1cc(Cl)c(C)cc1NC(=O)CSC1=NCCS1`, which Potency is on record?
The Potency was “inactive”.

How did the Potency turn out when `CCOC(=O)CNc1ncc([N+](=O)[O-])cc1C#N` was run?
The Potency was “inactive”.

With `CCc1ccc(NC(=O)CSc2nc3c(c(=O)[nH]2)CN(Cc2ccc(C)cc2)CC3)cc1` as the molecule, how does the Potency read?
The Potency was “inactive”.

`COc1ccccc1/C=C/C=N/n1c(-c2ccccc2)n[nH]c1=S` was tested. Which Potency did it give?
The Potency was inconclusive [inhibitor, full curve, poor fit].

With `O=C(Nc1cccc(NC(=O)c2ccccc2[N+](=O)[O-])n1)c1ccccc1[N+](=O)[O-]` as the molecule, how does the Potency read?
The Potency was inconclusive [inhibitor, single point].

How did the Potency turn out when `CC(=O)[C@@H]1[C@@H](C(=O)c2ccc(F)cc2)[C@]2(C(=O)Nc3ccccc32)[C@H]2C=Cc3cc(F)ccc3N12` was run?
The Potency was inconclusive [inhibitor, single point].
